Assay results from paper PMC12136788.
This is one part of the list.

B1: chr8:58579689:58579790:+|CDS|ENSG00000137575|msi1|FALSE|bound_elsewhere (ssRNA)
RNA: GGGAGUUCUACAGUCCGACGAUCAGCACUGGACAUGUUGGUUUUAUCUUUAAAAAUGGAAAAAUAACAUCCAUAGUGAAAGAUAGCUCUGCAGCCAGAAAUGGUCUUCUCACGGAACAUAACAUCUGUGAAAUCAAUGGACAGCAACAGAGGAUUGAGCAUCA
B2: chr9:95099063:95099164:-|3pUTR|ENSG00000158169|unk|total|mutant (ssRNA)
RNA: GGGAGUUCUACAGUCCGACGAUCGAGCGCCCCUCCAACCAGGCUGUUAUUCCCCUGGACUCCGUGACAUCUGUGGAAUUUUUCCGCUCUUUAAAAUCUGUAAUUUGUUGUCUAUUUUUUCAUUCUAAAUAAAACUUCAGUUUGCAACAGAGGAUUGAGCAUCA
B3: ENSG00000136451:be:win_551|CDS|ENSG00000136451|bound_else_gene|NA|bound_elsewhere_windowed (ssRNA)
RNA: GGGAGUUCUACAGUCCGACGAUCGAGAUGUGUACCAUCUCAAUCGACACAAGCUCUCCCAUUCAGAUGAGAAACCCUUUGAGUGUCCUAUUUGUAAUCAGCGCUUCAAGAGGAAGGACCGGAUGACUUACCAUGUGAGGUCUCCAACAGAGGAUUGAGCAUCA
B4: chr1:32680599:32680700:+|3pUTR|ENSG00000162521|msi1|FALSE|unique (ssRNA)
RNA: GGGAGUUCUACAGUCCGACGAUCAAGUGCUUAAAAUGGAAUAAAUUGCUUUUCUACAUAACCCCAUGCUGAUGGGUUUUAUUUAGUAUAAAACAUCCAUCAAACACCAGUCUCUGGCUUCUAGAAGAGUCCUUCAGAUGACAGCAACAGAGGAUUGAGCAUCA
B5: chr1:74475294:74475810:-|CDS|ENSG00000162621|control|control|control (ssRNA)
RNA: GGGAGUUCUACAGUCCGACGAUCUUUAGAAACCUGAAAAAGAAAGACCGUGGGGUAGGCAGCACUUUAUUUUGCCAGGAUGGUAGAUUGCUGCAUUCGGAAUGUUCAGAGCCUCCUGGAAAUAUGAGAGCUUUUAAUGAAGCACAACAGAGGAUUGAGCAUCA
B6: ENSG00000146842:stop:overlap|stop_codon|ENSG00000146842|stop_codon|NA|stop_codon (ssRNA)
RNA: GGGAGUUCUACAGUCCGACGAUCUGCUUGGGAGAGUUAAUCUUGGUCUAUCUGGUGUGAAUAUAUUGUGGAUCUUUGGCGAGUAGCAAGUCAUAUAUUUAAUUCUGACAUUUAGACUAUUUCACUGAACCAGAAGUCGAAACUCAACAGAGGAUUGAGCAUCA
B7: chr1:37590682:37590793:-|CDS|ENSG00000134697|unk|FALSE|unique (ssRNA)
RNA: GGGAGUUCUACAGUCCGACGAUCAAGCAAAGCAAGUUACCAAUGUCUCUUCUCCAUGAUCGAAUCCGGCCUCAUGUAAGAUGUAGGAUAUCCCUGGUGAUGGAAUUUCCUGGGCAAACUCCAUGCAGAUCCCUCUCUAACAUACAACAGAGGAUUGAGCAUCA
B8: chr3:10101824:10101929:+|3pUTR|ENSG00000144554|unk|total|mutant (ssRNA)
RNA: GGGAGUUCUACAGUCCGACGAUCAAAAUCUCUGAGUCAUGAUUCUGGACUUUGGGAGCCCGUUUUGAAACUCUGAUUUAUUGCCGAACUCCGGCUUGUACCAAUUUUACAAAUAAAUUCUGUUCUAAGUUCUGCCUCAGUUGCCAACAGAGGAUUGAGCAUCA
B9: chr17:48061271:48061372:+|3pUTR|ENSG00000082641|msi1|FALSE|unique (ssRNA)
RNA: GGGAGUUCUACAGUCCGACGAUCAGUGAAAUGGGGGUGGGGGGAAGCACUGAUUCCCAGUUAGGGGGUGCCUAACUGAGCAGUAGGGAUAGAAGGUGUGAACCUGGGAGUGCUUUUAUAAAUUAUUUUCCUUGUAGAUUUUAUCAACAGAGGAUUGAGCAUCA
B10: chr1:43623430:43623515:+|3pUTR|ENSG00000142949|msi1_unk|FALSE|overlapping (ssRNA)
RNA: GGGAGUUCUACAGUCCGACGAUCGGCGGGGAAGGGUGCAUAGCUGUUUUAGCUGAGGGACGUGGUGCCGACGUCCCCAAACCUAGCUAGGCUAAGUCAAGAUCAACAUUCCAGGGUUGGUAAUGUUGGAUGAUGAAACAUUCACAACAGAGGAUUGAGCAUCA
B11: chr13:20822168:20822271:-|CDS|ENSG00000132953|unk|FALSE|unique (ssRNA)
RNA: GGGAGUUCUACAGUCCGACGAUCUCGAAAAAUCAGAGAAGAUUCAGAUAUGGCACAAGAUUCUCUGCAGUGCCUUGCCCAGUUAGCUUCUCUUCAUGGACCCAUCUUCCCAGAUGAAGGAUCACAAGUUGAUUAUCUAGCACACAACAGAGGAUUGAGCAUCA
B12: chr1:117869688:117869789:-|3pUTR|ENSG00000196505|msi1|total|mutant (ssRNA)
RNA: GGGAGUUCUACAGUCCGACGAUCACUCCAGCAGUGAGCAUUCCGAGAGUGUGUUGUCUUCCAGAGUCAUGAAUGAUUUUGUUCCGCUAUCAGGUCUACUACCUCUAAGGACAUUUCACCGCAGCAUCUCUUGAGUUGCCUGCACAACAGAGGAUUGAGCAUCA
B13: chr1:205810550:205810651:-|5pUTR|ENSG00000133065|unk|total|mutant (ssRNA)
RNA: GGGAGUUCUACAGUCCGACGAUCUUGCGGCUUCAGUGCUUGAUGGGGCUGCCUGUUGGUGGAUCAGUUUUUGCAGUGCCUGGCCGGAGUGGAGAGCCGUGGGAAGAGGUCCUGCGGCGCCCAAGCCUGGGUUCACCCCAAGACCAACAGAGGAUUGAGCAUCA
B14: chr11:46542767:46542868:-|CDS|ENSG00000110497|msi1|total|mutant (ssRNA)
RNA: GGGAGUUCUACAGUCCGACGAUCAACACGCUCCGCAACCUCAGUCUGGGUCCUACCCGCCGCUCUUUGGGAGGGCCUCUGUCCCGCCACCCUUCCCGGUAUCACCGAGAAACCGCUCCUGGGUUGACAGGAUCUGAGUGGACCCAACAGAGGAUUGAGCAUCA

Target: MSI1 full-length (mouse, UniProt Q61474 1-362)
Experiment: nsRBNS (natural sequence RNA bind-n-seq); RBNS binding buffer (assumed for nsRBNS): 25 mM Tris pH 7.5, 150 mM KCl, 3 mM MgCl2, 0.01% Triton X-100, 500 ug/ml BSA, 20 U/ml SUPERase-In, 4 C; UNK is unkempt and MSI1 is Musashi-1; names of the RNAs are library labels; protein concentration not given here; high values mean tight binding

UniProt Q61474, sequence (Q61474 whole entry): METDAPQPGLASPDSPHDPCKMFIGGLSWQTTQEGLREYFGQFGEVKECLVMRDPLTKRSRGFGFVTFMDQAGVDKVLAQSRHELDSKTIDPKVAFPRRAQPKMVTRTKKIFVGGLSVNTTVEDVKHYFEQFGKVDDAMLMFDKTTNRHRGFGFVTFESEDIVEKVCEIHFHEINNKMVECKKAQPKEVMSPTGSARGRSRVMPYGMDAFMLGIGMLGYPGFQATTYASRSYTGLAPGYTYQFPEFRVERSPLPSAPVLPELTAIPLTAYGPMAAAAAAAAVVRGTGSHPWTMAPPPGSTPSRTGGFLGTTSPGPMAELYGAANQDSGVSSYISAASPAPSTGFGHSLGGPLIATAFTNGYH

Binder | binding signal [enrichment R]
B1 | 0.291
B2 | 0.763
B3 | 0.307
B4 | 0.478
B5 | 0.481
B6 | 0.426
B7 | 0.396
B8 | 0.338
B9 | 4.67
B10 | 0.624
B11 | 0.341
B12 | 0.256
B13 | 0.397
B14 | 0.529
